Source: PubChem BioAssay AID488969 (Vanderbilt High Throughput Screening Facility, 2010)
“And” between values parts separate entries of the source, which are not always exact repeats. Identical values can stand only once. The full ranking holds about 110,000 compounds; the median of “z-score” is about -0.1, and the highest 2% start at about 2. This is one part of the list.

These molecules were tested against Metabotropic glutamate receptor 8 (Rattus norvegicus) (UniProt P70579) (assay: rat mGluR8 modulators via GIRK flux, primary screen, cell-based, thallium flux, HTS (AID 488969)). Settings: HEK293 rat mGluR8, GIRK (G protein-gated inwardly rectifying potassium channel) thallium flux, FluoZin2; at 10 µM; stronger effect = higher value; submaximal glutamate (EC20) added with thallium.
UniProt P70579, sequence (P70579 whole entry, looked up): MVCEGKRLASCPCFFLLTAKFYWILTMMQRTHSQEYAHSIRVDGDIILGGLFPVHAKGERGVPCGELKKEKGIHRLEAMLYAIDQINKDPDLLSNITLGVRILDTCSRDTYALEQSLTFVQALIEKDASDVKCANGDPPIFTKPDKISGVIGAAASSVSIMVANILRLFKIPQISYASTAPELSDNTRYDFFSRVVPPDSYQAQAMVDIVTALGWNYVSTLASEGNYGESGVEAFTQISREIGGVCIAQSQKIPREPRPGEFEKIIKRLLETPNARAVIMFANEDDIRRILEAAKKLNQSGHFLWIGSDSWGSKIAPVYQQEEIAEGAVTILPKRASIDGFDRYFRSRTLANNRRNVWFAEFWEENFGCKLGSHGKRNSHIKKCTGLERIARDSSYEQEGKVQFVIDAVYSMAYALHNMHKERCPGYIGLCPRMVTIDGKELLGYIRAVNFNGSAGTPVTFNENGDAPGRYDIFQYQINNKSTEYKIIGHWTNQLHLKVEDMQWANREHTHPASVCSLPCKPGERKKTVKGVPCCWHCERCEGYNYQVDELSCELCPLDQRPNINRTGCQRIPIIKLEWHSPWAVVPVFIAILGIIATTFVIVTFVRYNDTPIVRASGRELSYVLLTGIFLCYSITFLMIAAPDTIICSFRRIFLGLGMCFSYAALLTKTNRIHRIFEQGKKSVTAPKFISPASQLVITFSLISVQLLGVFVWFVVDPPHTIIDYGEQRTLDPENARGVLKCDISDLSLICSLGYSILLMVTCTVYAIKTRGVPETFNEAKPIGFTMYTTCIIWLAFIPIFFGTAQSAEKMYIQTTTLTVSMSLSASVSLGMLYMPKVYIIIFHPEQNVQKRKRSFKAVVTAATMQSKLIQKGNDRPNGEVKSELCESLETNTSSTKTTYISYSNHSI
In the case of `Cn1c(=O)c2c(nc(OC/C=C/c3ccccc3)n2C)n(C)c1=O`, the z-score is reported as -0.629.
`COc1ccc(OCCC(=O)OCC(=O)NC(=O)NC(C)C)cc1` showed a z-score of -0.131.
In the case of `O=C1SCC(c2ccccc2)=NN1Cc1ccccc1`, the z-score is reported as -0.235.
`CC(C)(C)NC(=O)NC(=O)CSc1ncc(C(F)(F)F)cc1Cl` gave a z-score of -0.0657.
`CCCSc1nc(-n2ncc(C#N)c2N)c2c3c(sc2n1)CCC(C)C3` (stereo unspecified) gave a z-score of -0.285.
Work on `COc1ccc(C(=O)N(CCCO)Cc2cc3c(C)ccc(C)c3[nH]c2=O)cc1OC` yielded a z-score of 0.0645.
Molecule `CSc1cccc(NC(=O)CN(c2cc(C)ccc2C)S(C)(=O)=O)c1` has a z-score of 1.11.
In the case of `CC1=NN(c2nc(-c3ccc(F)cc3)cs2)C(=O)C1`, the z-score is reported as 0.0382.
Work on `O=C(CCC1CCCCC1)NNC(=O)NC12CC3CC(CC(C3)C1)C2` yielded a z-score of 0.138.
In the case of `O=C(Oc1ccc(N(Cc2cccs2)C2=NS(=O)(=O)c3ccccc32)cc1)c1ccc(Cl)cc1`, the z-score is reported as -0.103.
In the case of `O=C1CN(C(=O)c2cc([N+](=O)[O-])ccc2Cl)C(c2ccccc2)c2cc(F)ccc2N1` (stereo unspecified), the z-score is reported as -0.548.
With `O=[N+]([O-])c1cccc(S(=O)(=O)N2CCCC2)c1` the z-score was -0.0414.
In the case of `O=C(CSc1nc2ccccc2[nH]1)N1c2ccccc2Sc2ccccc21`, the z-score is reported as -0.394.
Work on `CC(C)(C)NC(=O)C(c1ccc(F)cc1)N(Cc1ccco1)C(=O)Cn1nnc(-c2cccs2)n1` (stereo unspecified) yielded a z-score of -0.585.
Work on `Cc1ccccc1NS(=O)(=O)c1ccc(OCC(=O)NCc2cccnc2)cc1` yielded a z-score of -0.241.
`Cc1csc(NC(=O)c2ccccc2[N+](=O)[O-])n1` gave a z-score of 0.963.
In the case of `COc1ccc2c(c1)CCN=C2Cc1ccc(OC)c(OC)c1`, the z-score is reported as -0.0417.
Work on `CCCCCCCCCCn1cc(C(C)=O)c(=O)[nH]c1=O` yielded a z-score of -0.201.
Molecule `CC(C)N1C(=O)C2C(C(=O)NC3CCCCC3)C3C=CC2(O3)C1C(=O)NC1CCCCC1` (stereo unspecified) has a z-score of 0.882.
Molecule `COc1cc(/C=C2/SC(=O)N(Cc3ccccc3Cl)C2=O)ccc1OCc1ccncc1` has a z-score of -0.0596.
Work on `CCOC(=O)c1c(-c2ccccc2)csc1NC(=O)CCN1C(=O)c2ccccc2C1=O` yielded a z-score of -0.51.
With `O=C(O)c1cc(N/N=C/c2ccc3c(c2)OCCO3)ccc1Cl` the z-score was -0.137.
`O=C(Cc1ccccc1)NCCSCc1ccc(Cl)cc1` was tested, and the z-score was -0.37.
In the case of `CCn1cc(C(=O)NCc2ccco2)c(=O)c2cc(S(=O)(=O)N3CCCCCC3)ccc21`, the z-score is reported as -0.541.
In the case of `COc1cc(CN2CCN(C(=O)CC(C)C)CC2)cc(OC)c1OC`, the z-score is reported as -0.0906.
`COC(=O)c1c(-c2cccc3ccccc23)csc1NC(=O)Cc1ccc(OC)c(OC)c1` was tested, and the z-score was 0.114.
With `COc1ccc(N2C(=O)CSC23C(=O)Nc2ccccc23)cc1` (stereo unspecified) the z-score was -0.395.
In the case of `c1ccc(CN(Cc2cccs2)C(c2cccs2)c2nnnn2C2CCCC2)cc1` (stereo unspecified), the z-score is reported as -0.0121.
For `CCOc1ccc(CC2CCC(=O)NC2=O)cc1` (stereo unspecified), the z-score was -0.138.
`Cc1cc(C)cc(N(C(=O)CNC(=O)c2cccs2)C(C(=O)NC2CCCC2)c2cccnc2)c1` (stereo unspecified) gave a z-score of -0.102.
`CC1CCN(Cc2nnnn2-c2cccc([N+](=O)[O-])c2)CC1` gave a z-score of -0.243.
`CCN(Cc1ccccc1)C(=O)CN1C(=S)NC(C)(C)CC1C` (stereo unspecified) gave a z-score of -0.0723.
For `O=C(CCSc1nnc(-c2ccncc2)o1)Nc1ccc(Cl)cc1`, the z-score was -1.35.
With `CCOC(=O)C1CCCN(c2ncnc3c2oc2ccccc23)C1` (stereo unspecified) the z-score was -0.619.
For `CC(C)C(=O)Nc1cccc(-c2cn3ccccc3n2)c1`, the z-score was -0.552.
`CCCSC1=C(C#N)C(c2cccnc2)C(C(=O)OCC)=C(c2ccccc2)N1` (stereo unspecified) was tested, and the z-score was -0.449.
`COc1ccc(CCCC(=O)N/N=C/c2cccc(OC)c2O)cc1C` showed a z-score of -0.351.
`COc1ccc(/C=N/Nc2ncnc3c2[nH]c2ccccc23)c(OC)c1OC` showed a z-score of -0.119.
`COC(=O)c1ccc(NC(=S)NCCc2cccc(C)c2)cc1` gave a z-score of -0.0498.
With `COc1ccc(-c2c[n+]3c4n2CCCCC4=C(c2ccc(Br)cc2)C3)cc1` the z-score was 1.54.
`COc1cc(OC)c(C2=NOC(C(=O)Nc3c(C)nn(CC(=O)N4CCCC4)c3C)C2)cc1Cl` (stereo unspecified) was tested, and the z-score was -0.14.
With `O=S1(=O)C=C(SCCN2CCCC2)c2ccccc21` the z-score was -0.196.
Work on `COC(=O)C1(Cc2ccccc2)NC(c2ccc(F)cc2)C2C(=O)N(C)C(=O)C21` (stereo unspecified) yielded a z-score of 0.233.
Molecule `Cc1cccc(C)c1NC(=O)CCCSc1nnc(-c2ccc(F)cc2)n1-c1ccccc1` has a z-score of -0.0409.
For `O=C(CNC1CCCCC1)N1CCc2ccccc2C1`, the z-score was 0.0605.
With `CCCCNC(=S)Nc1ccc(Cl)cc1` the z-score was 1.73.
For `COc1cccc2c1C(=O)CC2NC(=O)C(F)(F)F` (stereo unspecified), the z-score was 0.032.
`CCn1nc(NC(=O)c2cccnc2)c2cc3cccc(C)c3nc21` gave a z-score of -0.0388.
`NC(=O)C1CC(=O)N(Cc2ccc3c(c2)OCO3)C(=Nc2ccccc2)S1` (stereo unspecified) showed a z-score of 0.252.
In the case of `N#CC1=C(N)S[C@@H](C(=O)c2ccc(F)cc2)[C@@H]1c1cccs1`, the z-score is reported as -0.589.
In the case of `O=S(=O)(c1ccccc1)c1nc(-c2ccco2)oc1N1CCOCC1`, the z-score is reported as 0.143.
For `COc1cccc(NC(=O)N(Cc2ccco2)C(C)c2cccs2)c1` (stereo unspecified), the z-score was -0.441.
With `O=C(Nc1ccc(O)cc1C(=O)O)c1ccc2c(c1)C(=O)N(Cc1ccco1)C2=O` the z-score was -0.74.
Work on `CCn1c(C)c(/C=N/Nc2nc3ccccc3s2)c2ccccc21` yielded a z-score of 0.741.
Molecule `O=C(CC1N=C2c3ccccc3N=C(SCc3ccc(F)cc3)N2C1=O)NCc1ccco1` (stereo unspecified) has a z-score of -0.245.
`Cc1nn(C)cc1/C=N/NC(=O)C1(O)c2ccccc2-c2ccccc21` showed a z-score of -0.297.
Work on `O=c1c(Cl)nc2cc(Cl)ccc2n1CCNc1ncc(C(F)(F)F)cc1Cl` yielded a z-score of 0.248.
With `Cc1ccc(S(=O)(=O)C(C#N)c2nc3ccccc3nc2N2CCN(C)CC2)cc1C` (stereo unspecified) the z-score was -0.43.
Molecule `CC(C)CNC(CC(=O)Nc1cccc([N+](=O)[O-])c1)C(=O)O` (stereo unspecified) has a z-score of -0.184.
For `O=C(c1ccco1)N1CCN=C1SCc1cccc(F)c1`, the z-score was -0.38.
`Fc1ccc(SCCc2ccncc2)cc1` was tested, and the z-score was 0.0681 and -0.354.
`Cc1ccc(-c2nnc(Cc3ccc(Cl)cc3)o2)cc1` showed a z-score of -0.239.
With `COc1cc2[nH]c(=S)n(NC(=O)CC(C)C)c(=O)c2cc1OC` the z-score was -0.0233.
For `Cc1ccc(-n2nc(C(=O)O)nc2-c2ccccc2)cc1`, the z-score was -0.106.
Molecule `CN1C(=O)c2ccccc2C(C(=O)NCC2CCCO2)C1c1c[nH]c2ccccc12` (stereo unspecified) has a z-score of -1.14.
With `O=C(CN1CCN(Cc2ccc3c(c2)OCO3)CC1)Nc1ccc2c(c1)OCCO2` the z-score was 0.156.
`O=C(NCc1ccccn1)C1CC(c2ccc(F)cc2)=NO1` (stereo unspecified) showed a z-score of 0.284.
`c1ccc(Cc2nc3ccccc3n2Cc2ccccc2)cc1` was tested, and the z-score was -0.536.
`O=C(/C=C/c1cccs1)Nc1ccc(Br)cn1` showed a z-score of -0.222.
`CCc1ccccc1S(=O)(=O)Cc1ccc(C(=O)NC(C)C)o1` showed a z-score of -0.288.
Molecule `COc1ccc(N=c2ssnc2Cl)cc1` has a z-score of -0.257.
With `CCC(C)Sc1nc2c([nH]c3ccccc32)c(=O)n1C` (stereo unspecified) the z-score was -0.538.
`CCOC(=O)c1cc2c(=O)n3ccccc3nc2n(C(C)C)c1=NC(=O)c1ccncc1` gave a z-score of -0.585.
Work on `Cn1c(SCC(=O)OCc2ccccc2)nnc1-c1ccco1` yielded a z-score of -0.775.
`O=C(CN1CCN(S(=O)(=O)c2ccc(Br)cc2)CC1)N/N=C/c1cccnc1` showed a z-score of -0.15.
`CC(C)NC(=O)CSCc1ccccc1Cl` was tested, and the z-score was 0.666.
Work on `O=C(NCCS(=O)CCNC(=O)C(F)(F)F)C(F)(F)F` yielded a z-score of 0.174.
Work on `CCn1cc(NC(=O)Nc2ccccc2C(=O)OC)c(C(N)=O)n1` yielded a z-score of 0.315.
Work on `COc1ccc2c(c1OC)CCC2=O` yielded a z-score of 0.544.
Molecule `CCC(C)NC(=O)CSc1nnc(-c2cc(-c3ccc(C)cc3)nc3ccccc23)n1N` (stereo unspecified) has a z-score of -0.28.
`CN(C)c1cc[n+](Cc2c(Cl)cccc2Cl)cc1` was tested, and the z-score was 0.00132.
`CNc1nc(Nc2ccc(Br)cc2)nc(N)c1[N+](=O)[O-]` was tested, and the z-score was -0.169.
`CCC(CC)n1[nH]c(=O)c2c(C)cc(C)nc21` showed a z-score of 0.0952.
In the case of `Cn1cnc([N+](=O)[O-])c1Nc1cccc(O)c1`, the z-score is reported as -0.162.
In the case of `CCOC(=O)CNC(=O)c1ccc2[nH]c3c(c2c1)CCCC3`, the z-score is reported as -0.279.
`O=C(CCC(=O)OCc1ccc(Br)cc1)Nc1ccccc1` was tested, and the z-score was -0.0471.
In the case of `CC(=O)C1C(c2ccccc2Cl)NC(=O)NC1(O)C(F)(F)F` (stereo unspecified), the z-score is reported as 1.98.
In the case of `Cc1nnc(C)c2c(C)n(Cc3ccc4c(c3)OCO4)c(C)c12`, the z-score is reported as -0.126.
For `CC(C)(C)NC(=O)/C(=C\c1ccco1)NC(=O)c1cccs1`, the z-score was -0.374.
`CCN1C(=O)C(O)(CC(=O)c2ccccn2)c2ccccc21` (stereo unspecified) was tested, and the z-score was 0.569.
With `COc1ccc(/C=C2\Sc3ccc(C(=O)N4CCc5ccccc5C4)cc3N(C)C2=O)cc1` the z-score was -0.13.
`CC(C)N(C(=O)c1sc2cc([N+](=O)[O-])ccc2c1Cl)C(C)C` showed a z-score of -0.641.
Molecule `N#Cc1nc(-c2ccco2)oc1NCCN1CCOCC1` has a z-score of -0.639.
`CCN(CC)S(=O)(=O)c1ccc(NC(=O)COC(=O)c2ccc(-n3nc(C)cc3C)cc2)cc1` gave a z-score of 0.0126.
Molecule `COc1cccc(C(NC(=O)c2ccccc2F)NC(=O)c2ccccc2F)c1` has a z-score of -0.377.
`O=C(O)C1C2C=CC(C2)C1C(=O)Nc1cccc(C(=O)N2CCCCC2)c1` (stereo unspecified) was tested, and the z-score was -0.321.
Work on `COc1cccc(OC)c1C(=O)Nc1cc(Cl)ccc1N1CCOCC1` yielded a z-score of 0.304.
`COc1ccc(CNC2CCCC2)c(OC)c1OC` showed a z-score of -0.0468.
`O=S(=O)(/N=C(/Nc1cccc2ccccc12)c1ccccc1)c1cccs1` gave a z-score of -0.224.
`COc1c(Cl)cnn(-c2ccccc2)c1=O` gave a z-score of -0.114.
`COc1cc(/C=N/S(=O)(=O)CCc2ccccc2)cc(OC)c1O` was tested, and the z-score was -0.399.
`COc1ccccc1N(CC(=O)Nc1ccccc1C(=O)NCC(C)C)S(C)(=O)=O` was tested, and the z-score was -0.18.
Molecule `CCC12CN3CCN(CC(C3)/C1=N\NC(=O)Nc1ccccc1)C2` has a z-score of -0.0852.
Molecule `C(=N\N1CCN(Cc2cccc3ccccc23)CC1)/c1cccnc1` has a z-score of -0.607.
Molecule `Cc1nc2c3cc(F)ccc3n(Cc3ccccc3F)c2s1` has a z-score of 0.00664.
With `O=C(COc1ccccc1)Nc1ccc(OC(F)(F)C(F)F)c(NC(=O)COc2ccccc2)c1` the z-score was -0.29.
With `CSc1ccccc1NC(=O)c1cc(C)on1` the z-score was -0.0358.
Work on `Cc1ccc(NC(=O)NC(=O)CSc2nnc(-c3ccc(OC(F)F)cc3)n2N)c(C)c1` yielded a z-score of -1.61.
For `CC(=O)c1c(O)cc2n(c1=O)-c1ccc(Cl)cc1C2(C)C`, the z-score was -1.61.
Work on `CCCCOC(=O)CSc1nc2c(cc1C#N)C(=O)CC(C)(C)C2` yielded a z-score of -1.74.
Work on `COc1ccccc1NC(=O)N(CCN1CCCC1)Cc1cc2cc(C)ccc2[nH]c1=O` yielded a z-score of -0.065.
